# The whole screen tested about 48,000 compounds, of which about 450 (0.94%) were called active. Another 19% or so got no clear call; they are omitted. Calls follow the shape of the dose curve; as a rule, active = well fitted inhibition curve with a large enough effect; inconclusive = small, poorly fitted or top-dose-only effect; inactive = no such curve, though single readings can be large or run the other way. The list shows a part of the results.
# Assay: Primary qHTS for Identification of Small Molecule Inhibitors of Huntingtin Promoter Activity; also: nearly all actives have a fitted effect of over 50% in size
# Conditions: HEK293 HTT promoter firefly luciferase reporter (activity 0% = vehicle and -100% = no light), 24 h; series mostly up to 57.5 µM; activity change, negative = inhibition: at the top concentration
# Outline: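 HEK293 luciferase promoter-reporter cells (2,500/well) plated 24 h, then compounds added at up to 57.5 uM final for 24 h at 37 °C. Firefly luminescence by Dual-Glo, normalized to vehicle (0%) and zero RLU (-100%).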
row,Structure (SMILES),"activity change, negative = inhibition"
1,CC1=C(C(=O)NCc2ccc(C)cc2)C2(CCCCC2)OC1=O,inactive: -21.5%
2,Cc1ccc(Nc2c(F)cccc2Cl)c(CC(=O)O)c1,inactive: 2.76%
3,Cc1ccc2cccc(NC(=O)C(C)Oc3ccc(C)c(C)c3)c2n1 (stereo not drawn),inactive: -24.6%
4,Cc1noc(Cn2c(=O)c3ccccc3n(CC(=O)Nc3ccc(Cl)cc3)c2=O)n1,inactive: -7.87%
5,O=C(Nc1cc(Cl)ccc1Cl)C1(c2cccs2)CCOCC1,inactive: -11.5%
6,COc1ccc(Nc2ncc(C(=O)Nc3cc(Cl)c(OC)cc3OC)c3ccccc23)cc1,inactive: -12.6%
7,CN(C)c1ccc(C(CNS(=O)(=O)c2ccc(F)cc2)N2CCCC2)cc1 (stereo not drawn),inactive: 0.603%
8,O=c1c2cc3c(cc2n(Cc2cccc(Cl)c2)c(=O)n1Cc1nc(-c2ccccc2)no1)OCO3,inactive: -10.6%
9,COc1ccc(NC(=O)CCNS(=O)(=O)c2cccc3nonc23)c(OC)c1,inactive: -7.47%
10,COc1ccc(N2CCN(C(=O)c3ccc(Nc4nc5ccccc5n5nnnc45)cc3)CC2)cc1,inactive: 3.7%
11,O=C(Nc1ncc(Cc2ccc(Cl)cc2)s1)c1ccc2c(c1)CC(c1ccccc1)OC2=O (stereo not drawn),inactive: -9.41%
12,COc1cccc(CNC(=O)CSc2nc3ccccc3nc2Cc2ccc(C)cc2)c1OC,inactive: -5.63%
13,CCOC(=O)CNC(=O)c1cc2c(=O)n3cccc(C)c3nc2s1,inactive: 25.4%
14,COc1cccc(C2CC(=O)Nc3c2c(=O)nc2c(C)cccn32)c1 (stereo not drawn),inactive: -11.1%
15,CCOc1ccccc1NC(=O)CSc1ncc(S(=O)(=O)c2ccc(C(C)(C)C)cc2)c(=O)[nH]1,inactive: -12.9%
16,CCCCNC(=O)CCn1c(=O)c2cccn2c2ccc(F)cc21,inactive: -4.32%
17,CCOC(=O)c1cc(-c2ccc(OC)c(S(=O)(=O)NC3CCCCC3)c2)on1,inactive: -7.03%
18,CCCCN(CC)CCCNC(=O)CN1C(=O)CSc2ccc(S(=O)(=O)N3CCOCC3)cc21,inactive: -10.4%
19,COc1ccc(CCNC(=O)CN2C(=O)COc3ccc(C)cc32)cc1OC,inactive: -18.1%
20,CCN(C(=O)Cn1nc(Cc2ccncc2)c2ccccc2c1=O)c1cccc(Cl)c1,inactive: -4.51%
21,COc1ccccc1N(CC(=O)N1CCC(C)CC1)S(=O)(=O)c1ccc(C)cc1,inactive: -16.1%
22,c1ccc2sc(SSc3nc4ccccc4s3)nc2c1,inactive: 6.91% [at 25.2 µM]
23,COCCCNC(=O)c1c(-c2ccccc2)c(-c2ccccc2)nn(C)c1=O,inactive: -2.48%
24,O=C(Nc1ccc2nc3n(c(=O)c2c1)CCCCC3)C(=O)Nc1ccccc1F,inactive: 8.73%

row,Structure (SMILES),"activity change, negative = inhibition"
1,COc1cc(NC(=O)c2nn(C)c3c2CS(=O)(=O)c2ccccc2-3)cc(OC)c1,inactive: -22.4%
2,CCc1ccc(Cn2c(CNS(=O)(=O)c3ccc([N+](=O)[O-])cc3)nc3cccnc32)cc1,inactive: -9.02%
3,Cc1cccc(Nc2nn3c(=O)c4cc5c(cc4nc3s2)OCO5)c1,inactive: -13.8%
4,CCn1nc(C)c(CCN(C)C(=O)Nc2ccc(C)c(Cl)c2)c1C,inactive: 0%
5,COc1cc(N2C(=O)CSC23C(=O)N(Cc2cccc(F)c2)c2ccccc23)cc(OC)c1OC (stereo not drawn),inactive: -31.7%
6,COc1ccc(NC(=O)c2sc3nc4c(cc3c2N)CCCCCC4)c(OC)c1,inactive: -7.81% [at 11.5 µM]
7,CCN(CC)CCNC(=O)CN1C(=O)COc2ccc(S(=O)(=O)N3CCOCC3)cc21,inactive: -7.14%
8,CCOC(=O)Cn1c(=O)n(CC2CCCO2)c2nc(-c3ccc(OCC)cc3)nc(C(N)=O)c21 (stereo not drawn),inactive: -8.48%
9,COc1ccc(CCNC(=O)c2ccc3c(c2)CCN3S(=O)(=O)c2ccccc2)cc1OC,inactive: -14%
10,CCOc1ccccc1NC(=O)Cn1c(=O)n(Cc2ccccc2)c(=O)c2c1c1cc(C)ccc1n2C,inactive: -3.41%
11,COc1ccccc1OCc1nnc(-c2ccccc2)o1,inactive: 56.2%
12,CCCCOC(=O)c1ccc(OC(=O)c2sc3ncn(Cc4ccccc4Cl)c(=O)c3c2C)cc1,inactive: -19.1% [at 11.5 µM]
13,CCOc1ccc(CNCCCSc2nnnn2C)cc1OC,inactive: -15.1%
14,COc1cccc(CNC(=O)Cc2csc3nc(-c4ccccc4)cn23)c1,inactive: -0.785%
15,Cc1ccccc1Nc1c(-c2ccc(Br)cc2O)nc2sccn12,inactive: -14.3%
16,CCOc1ccc(NC(=O)Cn2cc(C(=O)c3ccc(OC)cc3)c(=O)c3cc4c(cc32)OCO4)cc1,inactive: -6.43%
17,O=C(Nc1ccc(Cl)c(-c2nc3ccccc3o2)c1)c1ccc(-c2cccc([N+](=O)[O-])c2)o1,inactive: -2.02%
18,COc1ccccc1CNC(=O)c1cnc(N(C)C)nc1,inactive: -8.49%
19,COc1ccc(NC(=O)Cn2c(SCc3ccc(F)cc3)nc3cccnc32)c(OC)c1,inactive: -28.8%
20,COc1cccc(N2CCN(C(=O)c3cc4c(=O)n(Cc5cccnc5)ccc4nc3C)CC2)c1,inactive: 3.07%
21,CC1CCn2c(nc3cc(C(=O)NCCc4ccccc4)ccc32)C1 (stereo not drawn),inactive: 2.18%
22,CCOc1ccc(C(=O)Nc2nc(-c3ccc(Br)cc3)ns2)cc1,inactive: -10.4%
23,COC(=O)c1ccccc1NC(=O)CCC(=O)N1CC(C)Sc2ccccc21 (stereo not drawn),inactive: -17.6%
24,Cc1ccc2c(=O)cc(C(=O)Nc3ccc(S(=O)(=O)N4CCCCC4)cc3)oc2c1,inactive: -15% [at 11.5 µM]

# From PubChem BioAssay AID1508623 (National Center for Advancing Translational Sciences (NCATS), 2021)
